Results reported in PubChem BioAssay (NCI).
Values joined by “and” are separate entries in the source; they are usually repeats but may differ in a detail not shown here. Equal values may be shown once.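 Following 48 hours of exposure in 96-well plates, responses at five concentrations were used to interpolate endpoints linearly. Abbreviation: GI50, concentration required for 50% inhibition of growth. TGI denotes the concentration required for complete inhibition of growth.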 Peptide text beside a SMILES is read from it. * marks the point of attachment. Fmoc = O=C(OCC1c2ccccc2-c2ccccc21)*; OBn = c1ccc(CO*)cc1; tBu = CC(C)(C)*

System: NCI-H322M lung
Assay: growth of human tumour cells (NCI), 48 h

SMILES: CC1CC[C@@]2(OC1)OC1C[C@H]3[C@@H]4CC=C5C[C@@H](OC6OC(CO)C(OC7OC(CO)C(O)C(O)C7O)C(O)C6OC6OC(C)C(O)C(O)C6O)CC[C@]5(C)[C@H]4CC[C@]3(C)C1[C@@H]2C (some centres undefined)
- TGI: 2.67 µM

SMILES: Nc1ccc2c3c1cccc3c(=O)n1c3ccc(Cc4ccc5c(c4)nc4c6ccc(N)c7cccc(c(=O)n54)c76)cc3nc21
- TGI: > 100 µM

SMILES: CCOC(=O)NC(Nc1ccc(C(=O)O)cc1)(C(F)(F)F)C(F)(F)F
- TGI: > 100 µM

SMILES: c1ccc(-c2nc3ccccc3[nH]2)c(OCCCCCOc2ccccc2-c2nc3ccccc3[nH]2)c1
- GI50: 12.2 µM
- TGI: 31.4 µM

SMILES: Cc1nc(Nc2ccc(Cl)c(Cl)c2)sc1C(/C=C/c1ccc2c(c1)OCO2)=N/Nc1ccc([N+](=O)[O-])cc1[N+](=O)[O-]
- TGI: > 100 µM

SMILES: COc1cc2c(cc1OCCN1CCN(CCOc3cc4c(cc3OC)C(=O)N3CCC[C@H]3C=N4)CC1)N=C[C@@H]1CCCN1C2=O
- TGI: > 100 µM

SMILES: Cc1ccc(-n2cc(/C(N)=N/O)c3ccccc3c2=O)cc1
- TGI: > 100 µM

SMILES: Cc1cn([C@H]2CN(O)C[C@@H](CO)O2)c(=O)[nH]c1=O
- TGI: > 100 µM

SMILES: COC(=O)[C@]1(c2cc3ccccc3[nH]2)CC2CNC1C1OC(C)(C)OC21 (some centres undefined)
- TGI: > 100 µM

SMILES: CC(C)C(Nc1c2ccccc2[n+](C)c2ccccc12)C(=O)O (centres undefined)
- TGI: > 100 µM

SMILES: CN(C)CN(C)c1nc(N(C)C)nc(N(C)C)n1
- TGI: > 100 µM

SMILES: O=C(Nc1nnc(-c2ccccc2)o1)C(SC(=S)N1CCCC1)c1ccccc1 (centres undefined)
- TGI: 85.6 µM

SMILES: Nc1ncnc2c1ncn2CCCNO
- TGI: > 100 µM

SMILES: NCC1OC(OC2C(N)CC(N)C(O)C2OC2OC(CO)C(O)C2O)C(N)C(O)C1O (centres undefined)
- TGI: > 100 µM

SMILES: CNC(=O)N(CCCCC(NC(C)=O)C(=O)NCc1ccccc1)Cc1ccccc1 (centres undefined)
- TGI: > 100 µM

SMILES: Oc1ccccc1/C=N/c1nc(-c2ccccc2)cs1
- GI50: > 100 µM
- TGI: > 100 µM

SMILES: O=[N+]([O-])/C=C/c1cn(CCCCCCCCn2cc(/C=C/[N+](=O)[O-])c3ccccc32)c2ccccc12
- TGI: > 10 µM

SMILES: NCC[PH+](c1ccccc1)c1ccccc1.NCC[PH+](c1ccccc1)c1ccccc1.[Cl-].[Pt+4]
- GI50: > 100 µM
- TGI: > 100 µM

SMILES: OCCN1CCCN(CCCN2c3ccccc3Sc3ccc(C(F)(F)F)cc32)CC1
- GI50: 6.02 µM
- TGI: 20.1 µM

SMILES: CCOC(=O)CSc1nc(-c2ccc(Cl)cc2)c(C#N)c(=O)[nH]1
- TGI: > 100 µM

SMILES: C=C(CCC(=O)N(CCc1c[nH]c2ccccc12)C(=O)c1ccccc1CSCC)C(=O)OC
- TGI: > 100 µM

SMILES: CCOc1ccc(Nc2nc(N)nc(N)c2N=O)cc1
- TGI: > 100 µM

SMILES: O=C(CC/C(CC(=O)c1ccc(Cl)cc1)=N\O)Nc1cccc(Cl)c1
- TGI: > 100 µM

SMILES: O=C1Cc2c([nH]c3ccccc23)-c2cc(Br)ccc2N1
- TGI: > 100 µM

SMILES: NC(=O)N1N=C2c3ccccc3OC[C@H]2[C@@H]1c1ccccc1
- TGI: > 100 µM

SMILES: Cc1cc(C)n(C(C)(C(=O)Cc2ccccc2)n2nc(C)cc2C)n1
- TGI: > 100 µM

SMILES: O=c1c2ccccc2n2nnc3ccc(NCCNCCO)c1c32
- TGI: 6.13 µM

SMILES: CCOC(=O)NCC(=O)NCC(=O)NCC(N)=O
- TGI: > 100 µM

SMILES: Nc1nc2c([nH]1)c1[nH]c3ccccc3c1c1[nH]c3ccccc3c21
- GI50: 10 µM
- TGI: 21.6 µM

SMILES: N#CC(C#N)=C/C=C/c1ccccc1[N+](=O)[O-]
- TGI: > 10 µM

SMILES: C=C(/C=C/C=C(\CO)CCC=C(C)C)[C@H]1CCC2([C@H](CCCO)/C(=C(/C)C=O)CC[C@]2(C)O)[C@H]1O (some centres undefined)
- TGI: > 100 µM

SMILES: Fc1nc(Sc2ncnc3nc[nH]c23)nc(-c2c3ccccc3c3sc4ccccc4n23)n1
- TGI: > 100 µM

SMILES: Cc1nc2sc(C(=O)Nc3cccc(Cl)c3)c(N)c2cc1C(O)c1ccccc1 (centres undefined)
- GI50: 2.98 µM
- TGI: 18.4 µM

SMILES: N#CC(c1cc(Cl)ncn1)c1nc2cc(C(F)(F)F)ccc2s1 (centres undefined)
- TGI: 20.1 µM

SMILES: O=C(CCCCCCCCC(=O)N1C(=O)CC(=O)N(c2ccc(Cl)cc2)C1=S)N1C(=O)CC(=O)N(c2ccc(Cl)cc2)C1=S
- TGI: > 100 µM

SMILES: CC(=O)O[C@H]1C(=O)[C@@]2(C)C([C@H](OC(=O)c3ccccc3)[C@]3(O)C[C@H](OC(=O)[C@H](O)[C@@H](NC(=O)c4ccc(Cl)cc4)c4ccccc4)C(C)=C1C3(C)C)C1(OC(C)=O)CO[C@@H]1C[C@@H]2O (some centres undefined)
- GI50: 0.0109 µM
- TGI: 25 µM and 17.5 µM

SMILES: Cc1cc(C)nc(NS(=O)(=O)c2ccc(NC(=O)c3ccc4nc5ccccc5c(Nc5ccc(S(=O)(=O)N=C(N)N)cc5)c4c3)cc2)n1
- TGI: > 100 µM

SMILES: COc1cc([N+](=O)[O-])c(S(=O)(=O)O)cc1-[n+]1nc(C(=O)Nc2ccccc2)nn1-c1ccc([N+](=O)[O-])c(S(=O)(=O)[O-])c1
- TGI: > 100 µM

SMILES: c1csc(-c2cc(-c3ccsc3)cs2)c1
- TGI: > 100 µM

SMILES: Cc1cc(N(CCC#N)CCC#N)ccc1/C=C1N=C(/C=C\c2ccccc2)N(c2ccc(C(=O)O)cc2)C\1=O
- TGI: > 100 µM

SMILES: CC(C)(C)[C@H]1NC(=O)CN1C(=O)OCc1ccccc1
- TGI: > 100 µM

SMILES: COc1ccc(C2C(C(=O)O)=C(COC(C)=O)Oc3cc4c(cc32)OCO4)c(OC)c1 (centres undefined)
- TGI: > 100 µM

SMILES: Nc1c([N+](=O)[O-])ncn1C1OC(CO)C(O)C1O (centres undefined)
- GI50: > 100 µM
- TGI: > 100 µM

SMILES: Cc1cc(C)c(C2=NO[C@@H]3[C@H]2C(=O)C=C2N(Cc4ccccc4)CCO[C@@]23O)c(C)c1
- TGI: > 100 µM

SMILES: COc1ccccc1-c1cc(=O)c2cccnc2[nH]1
- TGI: > 100 µM

SMILES: CC1=NN(C(=O)CC(=O)Nc2cccc(C)c2)C(=O)C1N=Nc1ccc(C(=O)O)cc1 (centres undefined)
- TGI: > 100 µM

SMILES: COC1=C(OC)C(=O)C(Cc2c(-c3ccccc3)nc3sc(Cl)cn23)=C(C)C1=O
- TGI: 56.9 µM

SMILES: O=[N+]([O-])C(/C=C(\Cl)[N+](=O)[O-])=C(Nc1ccccc1)Nc1ccccc1
- TGI: 31.7 µM

SMILES: CCOC(=O)CCC(NC(=O)c1ccc(NCc2ccc3nc(OC)c(OC)nc3c2)c2ccccc12)C(=O)OCC (centres undefined)
- TGI: > 100 µM

SMILES: COc1cc2ccc(CC(=O)O)cc2cc1OC
- TGI: > 100 µM

SMILES: CCn1c(-c2cc3ccccc3cc2OC(C)=O)n[nH]c1=S
- TGI: > 100 µM

SMILES: COc1cc(/C=C/C(=O)/C=C/c2ccc(-n3ccnc3)cc2)ccc1O
- GI50: 10.6 µM
- TGI: 30.8 µM

SMILES: COc1ccc2c(c1)CCC1C2CCC2(C)C(NC(=O)CCCCC3CCSS3)CCC12 (centres undefined)
- GI50: 67.8 µM
- TGI: > 100 µM

SMILES: CCOC1OC(C)(C=C(C#N)C#N)CCC1C (centres undefined)
- TGI: > 100 µM

SMILES: COc1ccc([C@H]2c3[nH]c4ccccc4c3C[C@H]3C(=O)N(CCCCCCC(=O)NO)CC(=O)N23)cc1
- GI50: 3.16 µM
- TGI: > 33.3 µM

SMILES: CN1CCC(C(=O)Nc2n[nH]c3nnc(-c4ccccc4)cc23)CC1
- GI50: > 25 µM
- TGI: > 25 µM

SMILES: CNc1ccc(CSc2ccc(C)cc2)cc1
- GI50: 26.9 µM
- TGI: > 100 µM

SMILES: C=C1CCC2C(C)(CO)C(O)CCC2(C)C1C/C=C1\C(=O)OCC1O (centres undefined)
- TGI: > 100 µM

SMILES: COc1ccc(C2=NOC3=c4ccccc4=CSC3=C2c2ccccc2)cc1
- GI50: > 100 µM
- TGI: > 100 µM

SMILES: Cc1c(-c2ccccc2)oc(=O)c2ccccc12
- TGI: 51.2 µM

SMILES: CN(C)c1ccc(/C=C2\N=C(c3ccccc3)N(c3nc4ccc(Sc5ccccc5)cc4[nH]3)C2=O)cc1
- TGI: > 100 µM

SMILES: CC(OC(C)(C)C)C(NC(=O)OCC1c2ccccc2-c2ccccc21)C(=O)NC(Cc1ccccc1)C(=O)OCc1ccccc1 (centres undefined) (Fmoc-Thr(tBu)-Phe-OBn; configuration not given here)
- TGI: > 100 µM

SMILES: CN(C)CC(=O)N1CCc2c([nH]c3ccccc23)C1c1cccnc1 (centres undefined)
- TGI: > 100 µM

SMILES: COc1cc(OC)c(OC)cc1/C=C\c1ccnc2ccccc12
- TGI: > 100 µM

SMILES: Fc1cccc(C2ON=C(c3ccccc3)N2C23CC4CC(CC(C4)C2)C3)c1 (centres undefined)
- TGI: > 10 µM

SMILES: N#Cc1nc(-c2ccsc2)oc1N
- TGI: > 100 µM

SMILES: CSC1=C(C)C(/C=N/Nc2ccc([N+](=O)[O-])cc2)=C(C)N(c2ccccc2)S1(=O)=O
- TGI: > 100 µM

SMILES: Cc1cc(Br)c(O)c(-c2cscn2)c1
- TGI: 90 µM

SMILES: CCN(CCCl)c1cc(CN(C)C)cc(NC(=O)c2ccc(C(=O)Nc3cccc(N(CCCl)NN)c3)cc2)c1
- TGI: 0.642 µM

SMILES: CCOC(=O)c1cnc2c(ccc3ncccc32)c1OCC
- TGI: > 100 µM

SMILES: CC(C)(C)c1cnc(CSc2cnc(NC(=O)C3CCNCC3)s2)o1
- GI50: 0.236 µM and 0.24 µM
- TGI: > 10 µM

SMILES: Clc1cc(Cl)cc(Nc2ccc3c(OCCCN4CCOCC4)cccc3n2)c1
- GI50: 2.51 µM
- TGI: 7.51 µM

SMILES: CC1=NN(c2cc(Cl)c(S(=O)(=O)O)cc2Cl)C2(C1)C(Cl)C(=O)N2c1nc2ccccc2s1 (centres undefined)
- TGI: > 100 µM

SMILES: CC1(C)O[C@@H](CCl)C[C@@H](C#N)O1
- TGI: > 100 µM

SMILES: FC(F)(Sc1ncccn1)c1nc2ccccc2o1
- TGI: > 100 µM

SMILES: CCOC(=O)CCC(C(=O)OCC)n1nnc2cc(Nc3c(C)[n+]([O-])c4cc(Cl)ccc4[n+]3[O-])ccc21 (centres undefined)
- TGI: > 100 µM

SMILES: O=c1[nH]c(NCCCCCO)nc2nc[nH]c12
- TGI: > 100 µM

SMILES: O=[N+]([O-])/C(=C/C=C/c1ccccc1)c1ccccc1
- GI50: 3.13 µM
- TGI: 10.7 µM

SMILES: Cc1cc(=O)[nH]c2c1C(=O)c1c(C)cc(=O)n(C)c1C2=O
- TGI: 0.0294 µM

SMILES: CCOc1ccccc1NC(=O)C1=C(C)NC(C)=C(C(=O)Nc2ccccc2OCC)C1c1ccc2c(c1)OCO2
- TGI: > 100 µM

SMILES: COc1ccc(/C=C2\N=C3N(Cc4ccccc4)C=C(N)N3C2=O)cc1
- TGI: > 100 µM

SMILES: Cc1c(C(=O)/C=C/c2ccc3c(c2)OCO3)[n+](=O)c2ccccc2n1[O-]
- TGI: > 100 µM

SMILES: O=C(CN1CCCC1)Nc1ccc2c(c1)C1Oc3ccccc3CC1CO2 (centres undefined)
- TGI: > 100 µM

SMILES: COc1ccc2cc1Oc1ccc(cc1)CC1c3c(cc(OC)c4c3Oc3cc5c(cc3O4)CCNC5C2)CCN1C (centres undefined)
- GI50: 1.54 µM
- TGI: 3.73 µM and 2.88 µM

SMILES: O=C(N[C@H]1CC2(C=C(I)C(=O)C(I)=C2)OC1=O)OCc1ccccc1
- TGI: > 100 µM

SMILES: COC(=O)C1C(=O)NC2(C)CC1c1ccccc1O2 (centres undefined)
- TGI: > 100 µM
